Consider 29 molecules from the supplement of paper PMC12632987.

B1: GBRAP_125_2992 (protein)
chain: SEEAVLADLATVLRALGFDDEDVEEAVALARAHGVRGTMYAALLALGYEELADLVAKLTEEETREALRRVAAELAANPDLTPEEVKELLLRVLKEILARR
B2: GBRAP_139_3738 (protein)
chain: AAPEAIVAAAAAAARALRDDPDALADYLVEQIKAVDEETAAAIVAAAMAALADLPVDRQLEIVDRVLEKLEEAGVSEDKRDVAEAELNGGLARHAAAEEA
B3: GBRAP_52_6286 (protein)
chain: SEEEVREVAEEILRLIEEGDLEGALELARKFAEESSLEEVLRLAEELIERSKELPKEKLDMAFEVIEELAEGIEELFGAEEEADILEARAAAAIYEALQA
B4: GBRAP_78_6705 (protein)
chain: EVEELIDKAIEELNKAAKLLVPLKTELANDALGHIVDAATYLEESEEKGVDLELLKEAKEHIEKAIELAKKLDSEKKPEILKHLTEALKLVEEAIKLVKK
B5: GBRAP_160_4569 (protein)
chain: SPAHEALIKEIREIAEEAIEFIKGQNFEERLNIVRVAAGEILLLLDENPEVSEETLDKADEIFDELIATIEANPDLTEEEIQALLREAVEKVIELIKKES
B6: GBRAP_160_4619 (protein)
chain: SEKVEELKKFVEEEFEETKEMIVGQTPEERAAIVDVTIGEIILEAEELEVVSDETLDEIDEIGDELVETILANPDLTDEEIKALIDEAREKIIALIEKDE
B7: GBRAP_78_6596 (protein)
chain: EVEELLDEAIEHLDKAAKLAKKLPEEKSNELLDLIVEAMSDILLAIENGFDLELLEEAKKYVKEAIEEAKKFNHPEAPEIIKELEKALELLEKAIELVKK
B8: GBRAP_52_5911 (protein)
chain: MRERLRALAEEALALVRAGDEEGARALLRRLAEELNDEELEEFIEEVAELVLAAPREELPAFERLAEIAAEELEREGRDEVLADDLLARTAAAIHEVLQR
B9: GBRAP_52_6233 (protein)
chain: MEERARELAEELLALALAGDEEGLRKKVKEIVKNESDEFIKLLVDVLAERLRTGDEAEAEAAERVLELLAKELEEEGKDEVLADYVESRLAAAAYEREQA
B10: GBRAP_137_3645 (protein)
chain: MNVTITKKTYGDLVEITITADDPEKAEEVKEMIEDIAVEKGALAISTEINEDGTLEAVIWVPKDKADALIKAITEKLKTEFGATVTIIDEDTGETKVIKP
B11: GBRAP_35_5618 (protein)
chain: MSDEELTDMLVDLIEDATAAVPDVSVETLAAIAASLSRAVRSLAEELAGNAENLRRLADAVEALRDAIERHHGDDPLAQETIAALTATAEEIRARAAASE
B12: GBRAP_39_5654 (protein)
chain: EEEEENELIFSYLIALAEKYRVEKGISEEELLEEGRELLEKMAEEHPEIAELVEKALEKMEEGDEETKEAIVGIALLYERGEPLEEIKEYLESLLKYIES
B13: GBRAP_160_4313 (protein)
chain: MEELEELKKEIEEIVEEAKKMLEGESAEQRKTIARVTLGEILLLAFENEAISDELEEKIAEIVDAAEAEIDANPDLTEEELKALLEKTREEILKLIDESE
B14: GBRAP_125_3038 (protein)
chain: SEEEVIEALAELARRLGLSEEEVEELARLAREHGAKGALIALLLAEGEEELAELAAKLSDEALAEVLKKLLAWLKAHPDATAEEALAKLKELLLEALAKQ
B15: GBRAP_184_5135 (protein)
chain: ELVRRAVESEKAEELIEEAEKVVKEAAAAGKKLFLAVFAENMSVEEVIKVIKRLGELKKKYPQVEVLVDVLDERSEEEIDKLVKAADEAGVRLVVAISDE
B16: GBRAP_128_3524 (protein)
chain: SVEEAKKRAEEVVEKIKNSTVEEAYAITKELLDELLTLSLEEVKAVADVLIEKMPELSAEKLDAVADAIDENLGKFSPEKQQELNGVRVEALNEAEEKEE
B17: GBRAP_184_5263 (protein)
chain: AVLERVVEAENVEELIEKMEEIREEALASGADVIILLKVKELTKEMIDALFAQLKKLRDAGYTGRVTVGIDADLTEEMIDYVVEKADEAGVNVVLAISEE
B18: GBRAP_160_4280 (protein)
chain: GEKLKELAEEVEEDRDEILSLVDEISAEEIRTLAVTSIGSAIMEAIDLGVLTDEEEDELAAIRDELEEELDEAKDASPEEIKEIITEHFDKVIELLRKAA
B19: GBRAP_159_3964 (protein)
chain: MEEKLAAAAELAEAAGLSPEAREDVLLAVELYLEGESDGSVAAHLFHAVQRHGLTVEQVRAVAEFFKSLGLEEALELTAELLREAGLEEHAAAIREVLAE
B20: GBRAP_160_4488 (protein)
chain: SEKLEEAKEEVRRIIELAVEAILEEKTENKRAIAAAFAGEIAQTLKELGVVTEEEEDEALELAEEGMERMVEASEEGEEALREAARELERRLEEFLEKAS
B21: GBRAP_139_3692 (protein)
chain: SAEEEKIEEARRLTRRAVEEGEPALRELAEYLVSLSEEEQIKAAEAIGEVLLPLPFDEAEAILEGLIKILREEFGNEDLAEIVEAEANRTLALIAVREEA
B22: GBRAP_166_4968 (protein)
chain: MEEEIVKELKEYIDEKAEKMKTANEEEKLELLAEVAEKLGEAKKKGLSKENLKELVKYLIKEARKVGISDSQVYGALSIIADLDEEEIDILEEARKEVEK
B23: GBRAP_80_6824 (protein)
chain: MEEELEEVLKEIEEKDKEVAEIAKEIVEIARKLGVSLEVLLRYAKALLELLKKDKEAALKLAKETLEEVKEAAKKGDKEEVTAILAEGESDALLKVEELE
B24: GBRAP_9_7127 (protein)
chain: KKELVEKLKEVVEEMIEDISKVVPEVTEEMKEEFLKKVEELEKEALEDESLTPEEIKEKFKELVEEIKEEVKKIVDEELKKLVEAIALTALEEIDEIVEE
B25: GBRAP_160_4595 (protein)
chain: SEEEEKLLKELEEIAEEAIKLIEGETHEQRLVILRVMGGDILLELSESSLATDELEEKADEIIDELIETVESNPDLTEEEIKELIKEMLEKIKEAIKKES
B26: GBRAP_125_3134 (protein)
chain: GMAEDLEDLAIVARALGFSDDDVAEAVAIAAKHGFKGTLYAIMAALGYDEVADLVEKITEEEAIEVIREVAAEIRADPSLTPEEVVELIKKRLEEVIAKK
B27: GBRAP_128_3272 (protein)
chain: MNEEVVAFAKELMEKIKNSDEEEKREIAREIMERIKESSLEDAETMIEVIEELLPELSAEDLDILADEARKAIPELDPEKANLVAGLEVEALNQREELEE
B28: GBRAP_160_4017 (protein)
chain: SAEIEALIKEIEELIEEAIEMMKGETPEERLTIARGMFGDILQLIFESPEVSDETEDEIAKLLDEALKELEENKDKDYETWVEILEKLLKKIKALLEKDK
B29: GBRAP_11_2835 (protein)
chain: KKEKLKEIAEKAEEVAKELEELIASGNPTEEELEELREKVKELLKLAKELGDESLVKLAEIALEEIEKAIEDPENRLEHLERALAAVRVLEGQALLLYDE

Whole data set: some 4,500 sequences, median “median log2 fold change of GCK-ALFA target abundance (FLAG IP / Myc IP barcode read proportion)” near 0.078, cut for the lowest 2% near -0.6. The list shows a part of the results.

Sequence of GABARAP, O95166 (O95166 whole entry, the tested form may be a part): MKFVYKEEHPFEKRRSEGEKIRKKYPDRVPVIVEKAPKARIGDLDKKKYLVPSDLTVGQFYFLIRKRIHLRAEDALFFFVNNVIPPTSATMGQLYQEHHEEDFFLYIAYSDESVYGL

In the assay the target is GABARAP, O95166. Put plainly: median log2 fold change of GCK-ALFA target abundance (FLAG IP / Myc IP barcode read proportion) (log2 ratio); each designed protein is fused to an ALFA-tag nanobody in HEK293 cells to bring the named protein to FLAG-tagged glucokinase (GCK); Myc marks an untargeted standard; higher = target protein stabilised (more abundant). Conditions: target protein: 3xFLAG-MCP-GCK-ALFA reporter; HEK293 landing pad (RPLP). Summed up:
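HEK293 landing-pad cells received a recombined binder library fused to the ALFA nanobody and were induced with 2 μg mL^−1 doxycycline, then transfected with a plasmid encoding a FLAG-tagged target and a Myc-tagged standard. Lysates were collected after 48 h for anti-FLAG and anti-Myc immunoprecipitation, and the circular RNA barcodes were reverse transcribed, amplified and sequenced. Target abundance for each binder is the median log2 ratio of FLAG to Myc barcode read proportions. Barcodes had to reach a proportion of at least 10^−7 in both replicates, each binder needed at least 3 barcodes per replicate, a pseudocount of 10^−6 was applied, and the two replicates were pooled.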
With B1, the “median log2 fold change” value was -0.12.

B2: the “median log2 fold change” value is -0.219.

Regarding B3, the “median log2 fold change” value is -0.541.

Turning to B4, the “median log2 fold change” value was 0.17.

Turning to B5, the “median log2 fold change” value was -0.213.

B6: the “median log2 fold change” value was -0.678.

As to B7, the “median log2 fold change” value is 0.17.

Take B8: the “median log2 fold change” value was 0.00867.

Turning to B9, the “median log2 fold change” value amounted to 0.389.

With B10, the “median log2 fold change” value is 0.215.

Take B11: the “median log2 fold change” value is -1.48.

Take B12: the “median log2 fold change” value is -0.0617.

Turning to B13, the “median log2 fold change” value is -0.284.

In the case of B14, the “median log2 fold change” value was -0.0535.

Turning to B15, the “median log2 fold change” value amounted to 0.0538.

Turning to B16, the “median log2 fold change” value was 0.221.

As for B17, the “median log2 fold change” value was 0.101.

On to B18, for which the “median log2 fold change” value is -0.0896.

As to B19, the “median log2 fold change” value worked out at 0.184.

In the case of B20, the “median log2 fold change” value was 0.139.

As for B21, the “median log2 fold change” value was 0.234.

On to B22, for which the “median log2 fold change” value was determined as 0.155.

As to B23, the “median log2 fold change” value was determined as 0.257.

B24: the “median log2 fold change” value is 0.275.

For B25, the “median log2 fold change” value is -0.253.

For B26, the “median log2 fold change” value is -0.575.

As to B27, the “median log2 fold change” value amounted to 0.177.

As for B28, the “median log2 fold change” value is -0.103.

Take B29: the “median log2 fold change” value worked out at 0.198.
